# PubChem BioAssay AID1476 (National Center for Advancing Translational Sciences (NCATS), 2009)
# About 4,500 (2.2%) of roughly 200,000 compounds were called active. Inconclusive means that the source gave no clear call. Such entries were picked first, then a sample of the others. The call rests on the fitted dose curve; in most records, active means well fitted inhibition curve with a large enough effect; inconclusive means small, poorly fitted or top-dose-only effect, or effect the other way; inactive means flat fitted curve, though single readings scatter. Potencies of inconclusive entries are doubtful fits and often do not repeat.
# Molecular target: Cruzipain (Trypanosoma cruzi) (UniProt P25779)
# Assay: qHTS Assay for Promiscuous and Specific Inhibitors of Cruzain (without detergent); further: nearly all actives have a fitted effect of over 40% in size;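 on max response, negative = inhibition: plate controls were enzyme without inhibitor for no effect and buffer without enzyme for full effect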
# Settings: purified cruzain, Z-FR-AMC fluorescence, no detergent
# How it was run: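 Detergent-free condition (0.00005% Triton X-100) in acetate buffer pH 5.5 with DTT. 1.5 nM enzyme and compound were pre-mixed 15 min, then 2 uM Z-FR-AMC substrate added; reaction progress from fluorescence change between first and third reads (60 s).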
# Potency means the concentration at half of the fitted maximal effect; tags describe the fitted curve by direction and shape.
# Chain of UniProt P25779 (P25779 whole entry, looked up): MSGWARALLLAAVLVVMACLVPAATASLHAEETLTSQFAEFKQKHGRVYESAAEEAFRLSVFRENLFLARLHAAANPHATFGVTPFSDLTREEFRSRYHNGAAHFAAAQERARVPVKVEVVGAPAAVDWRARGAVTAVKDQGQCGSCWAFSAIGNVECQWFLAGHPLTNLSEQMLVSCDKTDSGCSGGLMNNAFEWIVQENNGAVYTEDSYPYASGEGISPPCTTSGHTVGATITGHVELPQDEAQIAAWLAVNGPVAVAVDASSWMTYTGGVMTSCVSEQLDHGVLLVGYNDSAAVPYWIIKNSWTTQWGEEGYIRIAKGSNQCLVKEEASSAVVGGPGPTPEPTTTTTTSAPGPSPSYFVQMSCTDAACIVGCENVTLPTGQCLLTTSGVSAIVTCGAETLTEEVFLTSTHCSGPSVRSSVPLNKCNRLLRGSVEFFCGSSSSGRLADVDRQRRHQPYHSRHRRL
SMILES,Potency,"max response, negative = inhibition"
Cc1ccccc1CN1C(=O)c2ccccc2Sc2ccc(C(=O)NCc3cccs3)cc21,"inconclusive: 39.8 µM [inhibitor, single point]",–
COC(=O)c1c(N)n(-c2cc(Cl)cc(Cl)c2)c2nc3ccccc3nc12,–,inactive: -3.05%
CCC(=O)N1CCc2cc(Br)cc(S(=O)(=O)N3CCCC(C(=O)NCc4ccccc4)C3)c21 (stereo unspecified),–,inactive: -6.95%
CCCCC(=O)OCc1nc(N)nc(Nc2ccccc2C)n1,"inconclusive: 31.6 µM [inhibitor, single point]",–
COc1ccc(C(=O)N(Cc2ccco2)Cc2ccco2)cc1,–,inactive: -8.48%
CCOC(=O)/C=c1\s/c(=C\c2c(OC)ccc3ccccc23)c(=O)n1CC(=O)NCC1CCCO1 (stereo unspecified),"inconclusive: 39.8 µM [activator, single point]",–
COc1cc2c(cc1OC)CN(C(=O)CSc1nc(N)c(C#N)cc1C#N)CC2,"inconclusive: 31.6 µM [inhibitor, single point]",–
C=CCSc1nc(N)c(C(=O)Nc2ccccc2OC)cc1C(=O)Nc1ccccc1,"inconclusive: 31.6 µM [inhibitor, single point]",–
COc1cc(C(=O)Nc2cc(-c3nc4cc(C)ccc4o3)ccc2C)cc(OC)c1OC,"inconclusive: 10 µM [activator, partial curve]",–
Cn1c(=O)c2[nH]c(CCCCC(=O)O)nc2n(C)c1=O,–,inactive: 4.21%
Cc1c(C(=O)Nc2ccncc2)sc2nc(-c3ccc(F)cc3)cn12,"inconclusive: 39.8 µM [inhibitor, single point]",–
CCOC(=O)c1c(-c2cccs2)csc1NC(=O)CCCC(=O)O,"inconclusive: 39.8 µM [activator, single point]",–
COc1cc([N+](=O)[O-])ccc1NC(=O)COC(=O)c1n[nH]c2ccccc12,"inconclusive: 31.6 µM [inhibitor, single point]",–
COc1ccc(-c2noc(COc3cc(C)ccc3C)n2)cc1OC,"inconclusive: 25.1 µM [activator, single point]",–
O=C(COc1ccc(F)cc1)Nc1ccc2nc(SCC(=O)N3CCOCC3)sc2c1,"inconclusive: 39.8 µM [activator, single point]",–
COc1ccc(C2=NC(c3ccncc3)=Nc3ccc(OC)cc3N2)cc1,"inconclusive: 39.8 µM [activator, single point]",–
CC(OC(=O)c1ccccc1Nc1ccc(SC(F)F)cc1)C(N)=O (stereo unspecified),"inconclusive: 39.8 µM [activator, single point]",–
CNc1ncc(C(=O)c2ccc(Cl)c(Cl)c2)s1,–,inactive: -11.5%
COc1ccc(C2=C(C)C(=O)N(Cc3ccc(C(=O)NCc4cccc(C)c4)cc3)S2(=O)=O)cc1,active: 25.1 µM,–
Cc1ccc(Cc2c(C)nc3nc(SCC(=O)N4CCC5(CC4)OCCO5)nn3c2C)cc1,"inconclusive: 39.8 µM [activator, single point]",–
CC1CCN(C(=O)c2cc(-c3ccc(Br)cc3)on2)CC1,–,inactive: -4.68%
COc1ccccc1-c1cc(C(=O)N2CCN(c3ccccc3OC)CC2)no1,"inconclusive: 31.6 µM [activator, single point]",–

SMILES,Potency,"max response, negative = inhibition"
CS(=O)(=O)Nc1cccc(-c2cncnc2-n2ccnc2)c1,–,inactive: -8.66%
CCOC(=O)c1c(-c2cccs2)csc1NC(=O)CN1CC(C)OC(C)C1 (stereo unspecified),"inconclusive: 31.6 µM [activator, single point]",–
CCCCCCN1C(=O)C(O)=C(C(C)=O)C1c1ccc(Cl)cc1 (stereo unspecified),"inconclusive: 39.8 µM [activator, single point]",–
CCN(CC)C(=O)c1ccc(Nc2nnc(-c3ccc(C)c(S(=O)(=O)NC)c3)c3ccccc23)cc1,"inconclusive: 39.8 µM [activator, single point]",–
COc1ccccc1-c1cc(-c2ccc(C)cc2)nc(SCc2nnc(-c3ccccc3)o2)c1C#N,active: 3.98 µM,–
O=C(O)C1CC=CCC1C(=O)N1CCN(c2nc(-c3ccccc3Cl)c3cc(Br)ccc3n2)CC1 (stereo unspecified),"inconclusive: 25.1 µM [activator, partial curve]",–
COc1ccccc1N1CCN(c2ncnc3onc(-c4cccc(Cl)c4)c23)CC1,–,inactive: 9.06%
Clc1ccc(Cn2c(/C=C/c3ccco3)nc3ccccc32)cc1,"inconclusive: 25.1 µM [inhibitor, single point]",–
COc1ccc(/C=C/C(=O)Nc2ccc(N3CCOCC3)cc2)cc1,"inconclusive: 31.6 µM [inhibitor, single point]",–
O=C(Nc1sc2c(c1-c1nc3ccccc3[nH]1)CCCC2)C1CC1,active: 25.1 µM,–
CCCn1c(CN2CCN(c3cccc(Cl)c3)CC2)nc2c1c(=O)n(C)c(=O)n2C,"inconclusive: 31.6 µM [activator, single point]",–
CCc1ccc(NC(=O)Cn2c(=O)n(Cc3ccco3)c(=O)c3oc4ccccc4c32)cc1,–,inactive: 1.12%
O=C(CC1SC(=Nc2ccc(OC(F)F)cc2)N(CCC2=CCCCC2)C1=O)Nc1ccccc1F (stereo unspecified),"inconclusive: 31.6 µM [inhibitor, single point]",–
Cc1ccc(C(CC(=O)O)Nc2nc(N3CCCCC3)nc(N3CCCCC3)n2)cc1 (stereo unspecified),"inconclusive: 31.6 µM [activator, single point]",–
CCOC(=O)CSc1nc2c([nH]c3ccccc32)c(=O)n1C,"inconclusive: 25.1 µM [inhibitor, single point]",–
CCN(CC)c1ccc(N=Cc2c(O)n(CCc3ccc(OC)c(OC)c3)c(=O)[nH]c2=O)cc1,"inconclusive: 39.8 µM [activator, single point]",–
CCOc1ccc2nc(NCCNC(=O)C3CC3)c(C)cc2c1,"inconclusive: 39.8 µM [activator, single point]",–
C=C1CCC2C(CC2(C)C)C(=O)CCC1O (stereo unspecified),–,inactive: 5.64%
O=[N+]([O-])c1ccc(OC/C=C2\Oc3ccc([N+](=O)[O-])cc3C2N2CCOCC2)cc1 (stereo unspecified),–,inactive: -2.01%
CCC(C)n1c(C)nc2c(c1=O)c1nc3ccccc3nc1n2-c1ccc2c(c1)OCCO2 (stereo unspecified),"inconclusive: 0.0316 µM [inhibitor, full curve, poor fit]",–
CCOC(=O)c1cnc(-n2nc(C)cc2C)nc1NNc1cc(-c2ccccc2)nc(C)n1,"inconclusive: 39.8 µM [activator, single point]",–
CCCN(CC1CC1)C(=O)CSc1nnc(-c2cc(-c3cccs3)nc3ccccc23)o1,active: 15.8 µM,–

SMILES,Potency,"max response, negative = inhibition"
CCOc1ccccc1-n1nnc(-c2nsc(NC(=O)c3ccc(C)cc3)n2)c1C,–,inactive: 3.47%
CCc1ccccc1OCC(=O)Nc1ccc(S(=O)(=O)Nc2nc(C)cc(C)n2)cc1,"inconclusive: 39.8 µM [activator, single point]",–
COc1ccc(NC(=O)CN(c2cc(C)cc(C)c2)S(=O)(=O)c2c(C)noc2C)cc1OC,"inconclusive: 39.8 µM [activator, single point]",–
COc1ccccc1NC(=O)CSc1nc(-c2ccc(C(C)(C)C)cc2)c(C#N)c(=O)[nH]1,"inconclusive: 6.31 µM [inhibitor, single point]",–
COc1cccc(Cn2c(=O)cnc3cnc(N(C)C)nc32)c1,–,inactive: -8.72%
CC(C)c1ccc(Nc2cc(C(=O)NC3CCCCC3)c3ccccc3n2)cc1,–,inactive: 1.05%
CCc1ccc2occ(CC(=O)Nc3ccccc3C(F)(F)F)c2c1,–,inactive: -9.25%
CN(C)CCNC(=O)c1cc2c(=O)n(C)c3ccccc3c2n1C,"inconclusive: 15.8 µM [inhibitor, partial curve, poor fit]",–
CCC(NC(=O)OC(C)(C)C)C(=O)Oc1ccc2c3c(c(=O)oc2c1)CCC3 (stereo unspecified),"inconclusive: 25.1 µM [activator, partial curve]",–
CC(C)Cc1ccc(C(C)C(=O)OCC(=O)c2c[nH]c3ccccc23)cc1 (stereo unspecified),–,inactive: -3.52%
CCCn1c(SCC(=O)c2cc(OC)ccc2OC)nnc1C(C)C,"inconclusive: 25.1 µM [activator, single point]",–
O=C(NC(=S)Nc1nc(-c2ccccc2)cs1)c1cccs1,"inconclusive: 31.6 µM [inhibitor, single point]",–
COC(=O)c1cc(COc2ccc3oc(C)c(C(=O)OC)c3c2)c(C)o1,"inconclusive: 39.8 µM [activator, single point]",–
COc1cccc(OC)c1C(=O)NC(=S)Nc1ccc2c(c1)Cc1ccccc1-2,active: 15.8 µM,–
Cc1cccc(NC(=O)N2CCC3(CC2)Oc2ccccc2C(=O)N3Cc2ccccc2F)c1C,–,inactive: 13%
CCCn1c(SCC(=O)N2c3ccc(F)cc3CCC2C)nnc1-c1ccccn1 (stereo unspecified),"inconclusive: 31.6 µM [activator, single point]",–
CC1=CN2C(=N)/C(=C\c3cn(CCCOc4ccccc4)c4ccccc34)C(=O)N=C2S1,"inconclusive: 31.6 µM [inhibitor, single point]",–
Cc1ccccc1OCc1ccc(-c2nc(C#N)c(NCc3cccnc3)o2)o1,"inconclusive: 39.8 µM [activator, single point]",–
N.N.O=C(O)C1(C(=O)O)CCC1.[Pt],"inconclusive: 25.1 µM [activator, partial curve]",inactive: 13%
COc1ccc(OC)c(CNC(=O)C(C)n2c(C)c3cnn(-c4ccccc4)c(=O)c3c2C)c1 (stereo unspecified),"inconclusive: 1 µM [activator, single point]",–
CCOc1ccc(NC(=O)C2CCC(CNS(=O)(=O)c3ccc(Br)s3)CC2)cc1 (stereo unspecified),"inconclusive: 15.8 µM [inhibitor, partial curve]",–
